This assay can be described thus: qHTS Assay for Lipid Storage Modulators (AID 1519). The following applies: Drosophila S3 cells, BODIPY lipid droplet/cell ratio, laser cytometry, cells loaded with oleic acid; for AC50: measured here: lipid (BODIPY) channel AC50. The method, boiled down:
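Cells seeded at 5,000 per well were treated with compounds over a concentration series and loaded with oleic acid (400 uM, as added). Lipid droplet fluorescence (488 nm excitation, 500-530 nm channel) was read by laser-scanning cytometry and normalized to 20 uM Triacsin C.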
(qHTS replaces the single test concentration by a dilution series.)

The mark [1] stands for this setting: measured here: cell count channel max response.
The mark [2] stands for this setting: measured here: lipid channel max response.

The other results are listed elsewhere or left out. The main result of the screen is listed elsewhere. These columns were measured beside it and carry no call. The list favours compounds with an active or inconclusive main result. The note in brackets gives the kind of curve behind each potency; many fits are weak.
Tags tell the direction and shape of the fitted curve.

Turning to `O=C(c1cnccn1)N1CCC2(CC1)CN(Cc1nccs1)C2`, the AC50 is 12.6 µM [rising, partial curve, poor fit]. Also, the max response under setting [1] came out at 29.1%. Besides, the max response under setting [2] is 38.3%.
On to `COc1ccc(-c2nc3cnc(N4CCNCC4)nc3n(Cc3cccc(OC)c3)c2=O)cc1`, for which the AC50 is 2.24 µM [rising, partial curve, poor fit]. For the same compound, under setting [1], the max response is -8.14%. Moreover, under setting [2], the max response is -15.6%.
For `CCNc1ncc2nc(-c3ccc(OC)cc3)c(=O)n(C)c2n1`, the AC50 was 0.0794 µM [rising, full curve, poor fit]. Moreover, the max response under setting [1] came out at 20.3%. Moreover, the max response under setting [2] came out at 24.7%.
As for `COc1ccccc1-c1nccc(NCc2cccs2)n1`, the AC50 is 3.16 µM [rising, full curve, poor fit]. For the same compound, the max response under setting [1] worked out at 25.8%. The max response under setting [2] was 28.4%.
Consider `Cc1nc2cnc(N(C)C)nc2n(C)c1=O`, for which the AC50 was 7.08 µM [rising, partial curve, poor fit]. Also, the max response under setting [1] was 28%. The max response under setting [2] was determined as 39%.
Consider `c1cncc(CNc2cc(-c3ccoc3)ncn2)c1`, for which the AC50 was 20 µM [rising, partial curve, poor fit]. In addition, the max response under setting [1] was 35.8%. Besides, under setting [2], the max response worked out at 42.1%.
`COc1ccc(NC(=O)N2CC[C@@]3(CCCN(C(=O)c4cccc(F)c4)C3)C2)cc1`: the AC50 was 2 µM [rising, full curve, poor fit]. In addition, the max response under setting [1] is 12.8%. Besides, the max response under setting [2] was found to be 20%.
For `CC(=O)N1CCC2(CCCN(Cc3nccs3)C2)CC1`, the AC50 was 3.55 µM [rising, full curve, poor fit]. For the same compound, under setting [1], the max response was found to be 25.4%. Besides, the max response under setting [2] is 34.5%.
Take `Oc1ccc([C@@H]2CNCCc3c2cc(O)c(O)c3Cl)cc1`: the AC50 was 7.94 µM [rising, full curve, poor fit]. In addition, the max response under setting [1] came out at 27.8%. For the same compound, under setting [2], the max response was determined as 55.7%.
For `Cc1cc(-c2ccccc2)nnc1NCCN1CCOCC1`, the AC50 was 28.2 µM [rising, partial curve, poor fit]. The max response under setting [1] came to 23.5%. In addition, the max response under setting [2] was 47.4%.
Consider `N#CCCn1c(=O)c(-c2cccc(C#N)c2)nc2cnc(Oc3cccc(Cl)c3)nc21`, for which the AC50 was 22.4 µM [falling, single point]. Further, the max response under setting [1] is -29%. In addition, under setting [2], the max response is -37.7%.
Regarding `CC(=O)N1CCC2(CC1)CCN(c1cccc(-c3ccccc3)c1)CC2`, the AC50 is 3.55 µM [rising, partial curve]. Under setting [1], the max response was found to be 2.68%. Besides, the max response under setting [2] was determined as 6.12%.
As to `COCC(=O)N1CCC2(CCN(Cc3cc(C(F)(F)F)cc(C(F)(F)F)c3)CC2)CC1`, the AC50 is 3.55 µM [rising, partial curve, poor fit]. The max response under setting [1] was determined as 14.9%. Further, under setting [2], the max response came to 17.3%.
Turning to `CCNc1ncc2nc(-c3cc(F)cc(F)c3)c(=O)n(C3CC3)c2n1`, the AC50 is 39.8 µM [falling, single point]. Also, the max response under setting [1] was -26.4%. Under setting [2], the max response is -32.9%.
Regarding `Cc1cnc(CNc2nc(-c3cccnc3)nc3ccccc23)cn1`, the AC50 was 2.51 µM [rising, partial curve]. Also, the max response under setting [1] is 3.21%. Besides, the max response under setting [2] turned out to be 13.9%.
Consider `CN(C)C(=O)c1ccc(-c2nc(N(C)Cc3ccco3)c3ccccc3n2)cc1`, for which the AC50 is 1 µM [rising, full curve, poor fit]. The max response under setting [1] was determined as 14.1%. In addition, under setting [2], the max response was determined as 28.7%.
On to `C[C@@](N)(Cc1ccc(O)c(O)c1)C(=O)O`, for which the AC50 was 25.1 µM [rising, single point]. In addition, under setting [1], the max response came out at 27.1%. In addition, the max response under setting [2] worked out at 45.4%.
Take `Cn1c(=O)c(-c2ccccc2)nc2cnc(N3CCOCC3)nc21`: the AC50 was 1.26 µM [rising, partial curve, poor fit]. Moreover, the max response under setting [1] came out at 15.1%. In addition, under setting [2], the max response came out at 18.5%.
For `CN1CCc2c(c3ccccc3n2Cc2ccccc2)C1`, the AC50 is 31.6 µM [rising, single point]. Also, under setting [1], the max response is 23%. For the same compound, the max response under setting [2] came to 38.1%.
As for `Cc1nc2cnc(Nc3ccccc3)nc2n(Cc2cccs2)c1=O`, the AC50 was 0.00794 µM [rising, full curve, poor fit]. Moreover, under setting [1], the max response was -1.31%. The max response under setting [2] was -1.57%.
Consider `CC(C)(C)NCC(O)COc1cccc2c1CC(O)C(O)C2` (stereo unspecified), for which the AC50 was 3.98 µM [falling, single point]. Under setting [1], the max response came to 16.3%. Further, the max response under setting [2] was found to be 18.6%.
Regarding `CCC1OC(=O)C(C)[C@@H](O[C@H]2C[C@@](C)(OC)C(O)C(C)O2)C(C)[C@@H](O[C@@H]2OC(C)CC(N(C)C)C2O)[C@@](C)(O)CC(C)C2NC(COCCOC)O[C@H](C2C)[C@@]1(C)O` (stereo partly specified), the AC50 was 39.8 µM [rising, single point]. Besides, under setting [1], the max response came out at 29.7%. Also, under setting [2], the max response was determined as 51.5%.
`COCC(=O)N1CCC2(CCCN(c3ccccn3)C2)CC1`: the AC50 was 3.16 µM [rising, partial curve]. Also, the max response under setting [1] is -3.7%. Also, the max response under setting [2] worked out at 1.51%.
For the compound `O=c1c(-c2ccccc2)nc2cnc(N3CCOCC3)nc2n1Cc1cccs1`, the AC50 was 7.94 µM [rising, full curve, poor fit]. Also, the max response under setting [1] is 28.7%. In addition, the max response under setting [2] was determined as 30.1%.
For `COc1cccc(Cn2c(=O)c(-c3cccs3)nc3cnc(Nc4cccc(OC)c4)nc32)c1`, the AC50 is 0.0316 µM [rising, full curve, poor fit]. The max response under setting [1] was found to be 16.7%. Further, the max response under setting [2] is -2.84%.
Regarding `O=C(Nc1cccc(F)c1)N1CCCC2(CCN(C(=O)c3ccco3)CC2)C1`, the half-maximal activity concentration (AC50) was 0.0708 µM [rising, full curve, poor fit]. Besides, the max response under setting [1] was -2.2%. The max response under setting [2] came out at 4.06%.
Regarding `CSc1ccc2c(c1)N(CC[C@H]1CCCCN1C)c1ccccc1S2`, the AC50 was 15.8 µM [falling, single point]. In addition, the max response under setting [1] is -24.8%. Besides, under setting [2], the max response is -30.6%.
`COCCn1c(=O)c(-c2cccs2)nc2cnc(N3CCOCC3)nc21`: the AC50 was 3.55 µM [rising, single point]. Also, the max response under setting [1] is 0.223%. Besides, under setting [2], the max response was -2.9%.
Consider `N[C@@H](C(=O)O)c1ccc(O)c(C(=O)O)c1`, for which the AC50 is 14.1 µM [rising, single point]. Besides, the max response under setting [1] came out at 3.9%. The max response under setting [2] was 7.87%.
On to `Cn1cc(-c2nc3cnc(N4CCOCC4)nc3n(CCC#N)c2=O)c2ccccc21`, for which the AC50 is 15.8 µM [rising, single point]. Further, the max response under setting [1] is 25.2%. Also, the max response under setting [2] stood at 31.2%.
Consider `CN(C)c1ncc2nc(-c3ccc(Cl)cc3)c(=O)n(C3CC3)c2n1`, for which the AC50 is 0.0158 µM [rising, full curve]. Also, under setting [1], the max response was 10.3%. Further, the max response under setting [2] was 17.4%.
As for `CS(C)(=O)=O`, the AC50 was 35.5 µM [rising, partial curve]. Besides, under setting [1], the max response came out at 26.7%. The max response under setting [2] turned out to be 42.9%.
With `O=C(c1csnn1)N1CCC[C@@]2(CCN(c3ccncc3)C2)C1`, the AC50 was 14.1 µM [rising, single point]. Further, under setting [1], the max response was 23.7%. Further, the max response under setting [2] amounted to 32.4%.
As to `c1ccc(CNc2cc(-c3ccoc3)ncn2)cc1`, the AC50 is 11.2 µM [rising, partial curve, poor fit]. For the same compound, under setting [1], the max response is 28%. Further, under setting [2], the max response was found to be 36.2%.
In the case of `CCNc1ncc2nc(-c3ccc(Cl)cc3)c(=O)n(-c3ccccc3)c2n1`, the concentration at half-maximal activity (AC50) is 0.0447 µM [rising, full curve, poor fit]. Moreover, under setting [1], the max response stood at 14%. Further, under setting [2], the max response is -8%.
Regarding `COc1cccc(Cn2c(=O)c(-c3ccc(F)cc3)nc3cncnc32)c1`, the AC50 is 0.02 µM [rising, full curve, poor fit]. Moreover, the max response under setting [1] was 23.2%. For the same compound, under setting [2], the max response stood at 27.4%.
As to `CCN1CCN(c2cc3c(cc2F)c(=O)c(C(=O)O)cn3C2CC2)CC1`, the AC50 was 3.16 µM [rising, partial curve]. Also, the max response under setting [1] was 17%. In addition, the max response under setting [2] is 32.7%.
For `c1ccc(CNc2ncncc2-c2ccoc2)cc1`, the AC50 was 1.58 µM [rising, full curve, poor fit]. Moreover, the max response under setting [1] was found to be 31.4%. Further, under setting [2], the max response worked out at 35%.
Turning to `C[C@H](O)[C@@H]1C(=O)N2C(C(=O)O)=C(SCCN=CN)C[C@@H]12`, the AC50 was 0.00251 µM [rising, full curve, poor fit]. Further, the max response under setting [1] was 8.17%. Under setting [2], the max response is 6.98%.
Turning to `COc1cccc2c1C(=O)c1c(O)c3c(c(O)c1C2=O)C[C@](O)(C(=O)CO)C[C@H]3O[C@@H]1C[C@H](N)[C@H](O)[C@H](C)O1`, the concentration at half-maximal activity (AC50) was 5.01 µM [falling, partial curve]. Also, the max response under setting [1] is -44.1%. Besides, the max response under setting [2] is -70%.
`Cc1noc(C)c1C(=O)N1CCC2(CC1)CCN(C(c1ccccc1)c1ccccc1)CC2`: the AC50 is 39.8 µM [rising, single point]. In addition, the max response under setting [1] turned out to be 20.9%. Moreover, the max response under setting [2] was determined as 36.5%.
With `O=C(c1cc(C(F)(F)F)cc(C(F)(F)F)c1)N1CCC[C@@]2(CCN(Cc3ccccc3)C2)C1`, the AC50 is 3.55 µM [rising, partial curve, poor fit]. Moreover, under setting [1], the max response is 0.753%. For the same compound, under setting [2], the max response amounted to 6.95%.

The term AC50 denotes the concentration giving half of the maximal activity seen.
